In the GPR68 mutational scans of Howard et al. (2025):

B1: GPR68, Q15743 (parent)
chain: MGNITADNSSMSCTIDHTIHQTLAPVVYVTVLVVGFPANCLSLYFGYLQIKARNELGVYLCNLTVADLFYICSLPFWLQYVLQHDNWSHGDLSCQVCGILLYENIYISVGFLCCISVDRYLAVAHPFRFHQFRTLKAAVGVSVVIWAKELLTSIYFLMHEEVIEDENQHRVCFEHYPIQAWQRAINYYRFLVGFLFPICLLLASYQGILRAVRRSHGTQKSRKDQIQRLVLSTVVIFLACFLPYHVLLLVRSVWEASCDFAKGVFNAYHFSLLLTSFNCVADPVLYCFVSETTHRDLARLRGACLAFLTCSRTGRAREAYPLGAPEASGKSGAQGEEPELLTKLHPAFQTPNSPGSGGFPTGRLA

How the values were obtained:
[1] = variants of: B1; assay: cAMP reporter score (Enrich2 score, wild type = 0); higher = more signal; HEK293T, FACS bins
[2] = variants of: B1; assay: surface expression score (Enrich2 score, wild type = 0); higher = more signal; HEK293T, FACS bins

L200G
cAMP reporter score ([1]; pH 5.5): 0.024
cAMP reporter score ([1]; pH 6): -1.07
cAMP reporter score ([1]; pH 6, modulator: ogerin): -0.888
cAMP reporter score ([1]; pH 6.5, modulator: ogerin): -1.01
surface expression score [2]: -1.66

L200H
cAMP reporter score ([1]; pH 5.5): -2.2
cAMP reporter score ([1]; pH 6): -1.69
surface expression score [2]: -1.64

L200I
cAMP reporter score ([1]; pH 5.5): 0.63
cAMP reporter score ([1]; pH 6): 2.64
cAMP reporter score ([1]; pH 6, modulator: ogerin): 0.441
cAMP reporter score ([1]; pH 6.5, modulator: ogerin): 2.19

L200K
cAMP reporter score ([1]; pH 5.5): -1.66
cAMP reporter score ([1]; pH 6): -1.1
cAMP reporter score ([1]; pH 6, modulator: ogerin): -3.21
cAMP reporter score ([1]; pH 6.5, modulator: ogerin): -0.632
surface expression score [2]: -1.71

L200M
cAMP reporter score ([1]; pH 5.5): -0.039
cAMP reporter score ([1]; pH 6): -0.106
cAMP reporter score ([1]; pH 6, modulator: ogerin): 0.045
cAMP reporter score ([1]; pH 6.5, modulator: ogerin): -0.347
surface expression score [2]: -0.748

L200P
cAMP reporter score ([1]; pH 5.5): -0.482
cAMP reporter score ([1]; pH 6): -0.056
cAMP reporter score ([1]; pH 6, modulator: ogerin): -0.646
cAMP reporter score ([1]; pH 6.5, modulator: ogerin): -0.392
surface expression score [2]: -0.482

L200Q
cAMP reporter score ([1]; pH 5.5): -1.11
cAMP reporter score ([1]; pH 6): -0.856
cAMP reporter score ([1]; pH 6, modulator: ogerin): -1.26
cAMP reporter score ([1]; pH 6.5, modulator: ogerin): -0.593
surface expression score [2]: -1.15

L200S
cAMP reporter score ([1]; pH 5.5): -1.78
cAMP reporter score ([1]; pH 6, modulator: ogerin): -1.37
cAMP reporter score ([1]; pH 6.5, modulator: ogerin): -1.66

L200T
cAMP reporter score ([1]; pH 5.5): -0.571
cAMP reporter score ([1]; pH 6, modulator: ogerin): -0.056
cAMP reporter score ([1]; pH 6.5, modulator: ogerin): -0.203
surface expression score [2]: -1.03

L200V
cAMP reporter score ([1]; pH 5.5): -0.736
cAMP reporter score ([1]; pH 6): 0.111
cAMP reporter score ([1]; pH 6, modulator: ogerin): -0.456
cAMP reporter score ([1]; pH 6.5, modulator: ogerin): -0.623
surface expression score [2]: -0.696

L200Y
cAMP reporter score ([1]; pH 5.5): -0.207
cAMP reporter score ([1]; pH 6): -0.942
cAMP reporter score ([1]; pH 6, modulator: ogerin): -2.03
cAMP reporter score ([1]; pH 6.5, modulator: ogerin): -0.682
surface expression score [2]: -1.81

L200_L201del
cAMP reporter score ([1]; pH 5.5): -1.42
cAMP reporter score ([1]; pH 6): -1.65
cAMP reporter score ([1]; pH 6, modulator: ogerin): -1.43
cAMP reporter score ([1]; pH 6.5, modulator: ogerin): -1.2
surface expression score [2]: -2.63

L201_L202insGS
cAMP reporter score ([1]; pH 5.5): -0.372
cAMP reporter score ([1]; pH 6): -1.69
cAMP reporter score ([1]; pH 6.5, modulator: ogerin): -1.19
surface expression score [2]: -2.35

L202_A203insGS
cAMP reporter score ([1]; pH 5.5): -0.902
cAMP reporter score ([1]; pH 6): -1.35
cAMP reporter score ([1]; pH 6, modulator: ogerin): -1.5
cAMP reporter score ([1]; pH 6.5, modulator: ogerin): -1.32
surface expression score [2]: -2

L202_A203insGSG
cAMP reporter score ([1]; pH 5.5): -0.879
surface expression score [2]: -2.54

L202_S204del
cAMP reporter score ([1]; pH 5.5): -1.32
cAMP reporter score ([1]; pH 6, modulator: ogerin): -1.67
cAMP reporter score ([1]; pH 6.5, modulator: ogerin): -0.994
surface expression score [2]: -2.66

A203_S204insGSG
cAMP reporter score ([1]; pH 5.5): -0.966
cAMP reporter score ([1]; pH 6): -1.52
cAMP reporter score ([1]; pH 6, modulator: ogerin): -1.12
cAMP reporter score ([1]; pH 6.5, modulator: ogerin): -1.1
surface expression score [2]: -2.66

S204_Q206del
cAMP reporter score ([1]; pH 5.5): -1.54
cAMP reporter score ([1]; pH 6): -1.12
cAMP reporter score ([1]; pH 6, modulator: ogerin): -1.29
cAMP reporter score ([1]; pH 6.5, modulator: ogerin): -1.36
surface expression score [2]: -2.54

Y205_Q206insGS
cAMP reporter score ([1]; pH 5.5): -1.3
cAMP reporter score ([1]; pH 6): -0.632
cAMP reporter score ([1]; pH 6.5, modulator: ogerin): -1.26
surface expression score [2]: -2.26

Y205del
cAMP reporter score ([1]; pH 5.5): -2.13
cAMP reporter score ([1]; pH 6): -1.74
cAMP reporter score ([1]; pH 6.5, modulator: ogerin): -1.96
surface expression score [2]: -2.73

Q206A
cAMP reporter score ([1]; pH 5.5): 1.68
cAMP reporter score ([1]; pH 6, modulator: ogerin): 2.2
cAMP reporter score ([1]; pH 6.5, modulator: ogerin): 1.08
surface expression score [2]: 3.27

Q206C
cAMP reporter score ([1]; pH 5.5): 0.476
cAMP reporter score ([1]; pH 6): -0.105
cAMP reporter score ([1]; pH 6, modulator: ogerin): 0.24
cAMP reporter score ([1]; pH 6.5, modulator: ogerin): 0.121
surface expression score [2]: 1.22

Q206D
cAMP reporter score ([1]; pH 5.5): 0.279
cAMP reporter score ([1]; pH 6): -0.326
cAMP reporter score ([1]; pH 6, modulator: ogerin): 0.106
cAMP reporter score ([1]; pH 6.5, modulator: ogerin): -0.846
surface expression score [2]: -0.338

Q206E
cAMP reporter score ([1]; pH 5.5): 0.119
cAMP reporter score ([1]; pH 6): -0.179
cAMP reporter score ([1]; pH 6, modulator: ogerin): 0.12
cAMP reporter score ([1]; pH 6.5, modulator: ogerin): -0.501
surface expression score [2]: -1.6

Q206F
cAMP reporter score ([1]; pH 5.5): -0.02
cAMP reporter score ([1]; pH 6): -0.96
cAMP reporter score ([1]; pH 6, modulator: ogerin): 0.214
cAMP reporter score ([1]; pH 6.5, modulator: ogerin): -0.26
surface expression score [2]: 1.03

Q206G
cAMP reporter score ([1]; pH 5.5): 0.711
cAMP reporter score ([1]; pH 6): -0.146
cAMP reporter score ([1]; pH 6, modulator: ogerin): 0.311
cAMP reporter score ([1]; pH 6.5, modulator: ogerin): 1.45
surface expression score [2]: 1.45

Q206H
cAMP reporter score ([1]; pH 5.5): 0.766
cAMP reporter score ([1]; pH 6): 1.19
cAMP reporter score ([1]; pH 6, modulator: ogerin): 1.11
cAMP reporter score ([1]; pH 6.5, modulator: ogerin): 1.58
surface expression score [2]: 1.23

Q206I
cAMP reporter score ([1]; pH 5.5): 0.095
cAMP reporter score ([1]; pH 6): -0.248
cAMP reporter score ([1]; pH 6, modulator: ogerin): 0.465
cAMP reporter score ([1]; pH 6.5, modulator: ogerin): 0.498
surface expression score [2]: 1.54

Q206K
cAMP reporter score ([1]; pH 5.5): 0.01
cAMP reporter score ([1]; pH 6, modulator: ogerin): -0.829
cAMP reporter score ([1]; pH 6.5, modulator: ogerin): -0.371
surface expression score [2]: -0.121

Q206M
cAMP reporter score ([1]; pH 5.5): 0.132
cAMP reporter score ([1]; pH 6, modulator: ogerin): 0.506
cAMP reporter score ([1]; pH 6.5, modulator: ogerin): 0.385
surface expression score [2]: 0.826

Q206N
cAMP reporter score ([1]; pH 5.5): 0.992
cAMP reporter score ([1]; pH 6): 1.75
cAMP reporter score ([1]; pH 6, modulator: ogerin): 1.34
cAMP reporter score ([1]; pH 6.5, modulator: ogerin): 1.06
surface expression score [2]: -0.285

Q206P
cAMP reporter score ([1]; pH 5.5): -0.156
cAMP reporter score ([1]; pH 6): -1.21
cAMP reporter score ([1]; pH 6, modulator: ogerin): -0.674
cAMP reporter score ([1]; pH 6.5, modulator: ogerin): -0.438

Q206R
cAMP reporter score ([1]; pH 5.5): 2.36
cAMP reporter score ([1]; pH 6): 1.48
cAMP reporter score ([1]; pH 6, modulator: ogerin): -0.439
cAMP reporter score ([1]; pH 6.5, modulator: ogerin): 0.037
surface expression score [2]: 0.672

The least precise scores are not listed. Two further conditions of the source, in which the scores hardly spread, are not listed. In variant names, del marks residues removed and ins residues inserted between the two positions. For some of these results: The data file names ogerin without a concentration.
